# In patent publication US20240124614A1:
# Molecular target: ECM (extracellular matrix)
# Test: ECL plate assay on coated ECM (Matrigel)
ECM binding vs Control Ab (pH 5.8) (fold vs Control Ab),ECM binding vs Control Ab (pH 7.4) (fold vs Control Ab),Binder
19.3,1.65,"hT4VL.FRv40502 (antibody, human IgG1, kappa) heavy: EVQLVESGGGLVQPGGSLRLSCAASGYTFTSYVMHWVRQAPGKGLEWVSAINPYNDGNYYADSVKGRFTISRDNSRKTLYLQMNSLRAEDTAVYYCARGAYKRGYAMDYWGQGTTVTVSSASTKGPSVFPLAPSSKSTSGGTAALGCLVKDYFPEPVTVSWNSGALTSGVHTFPAVLQSSGLYSLSSVVTVPSSSLGTQTYICNVNHKPSNTKVDKKV[human IgG1 Fc not given here]GSGGGSVTGYRLFEEIL light: DLVMTQSPSSLSASVGDRVTITCKSSQSLFESKTRKNYLAWYQQKPGKAPKLLIYWASTRESGVPARFSGSGSGTDFTLTISSLEPEDFAVYYCYQYYYEPYTFGQGTKVEIKRTVAAPSVFIFPPSDEQLKSGTASVVCLLNNFYPREAKVQWKVDNALQSGNSQESVTEQDSKDSTYSLSSTLTLSKADYEKHKVYACEVTHQGLSSPVTKSFNRGEC"
14.1,1.1,"hT4VL.FRv40503 (antibody, human IgG1, kappa) heavy: EVQLVESGGGLVQPGGSLRLSCAASGYTFTSYVMHWVRQAPGKGLEWVSAINPYNDGNYYADSVKGRFTISRDNSRKTLYLQMNSLRAEDTAVYYCARGAYKRGYAMDYWGQGTTVTVSSASTKGPSVFPLAPSSKSTSGGTAALGCLVKDYFPEPVTVSWNSGALTSGVHTFPAVLQSSGLYSLSSVVTVPSSSLGTQTYICNVNHKPSNTKVDKKV[human IgG1 Fc not given here]GSGGGSVTGYRLFEEIL light: DLVMTQSPSSLSASVGDRVTITCKSSQSLFESKTRKNYLAWYQQKPGKAPKLLIYWASTRESGVPARFSGSGSGTDFTLTISSLEPEDFAVYYCQQEYYEPYTFGQGTKVEIKRTVAAPSVFIFPPSDEQLKSGTASVVCLLNNFYPREAKVQWKVDNALQSGNSQESVTEQDSKDSTYSLSSTLTLSKADYEKHKVYACEVTHQGLSSPVTKSFNRGEC"
6.26,1.02,"hT4VL.FRv40509 (antibody, human IgG1, kappa) heavy: EVQLVESGGGLVQPGGSLRLSCAASGYTFTSYVMHWVRQAPGKGLEWVSAINPYNDGNYYADSVKGRFTISRDNSRKTLYLQMNSLRAEDTAVYYCARGAYKRGYAMDYWGQGTTVTVSSASTKGPSVFPLAPSSKSTSGGTAALGCLVKDYFPEPVTVSWNSGALTSGVHTFPAVLQSSGLYSLSSVVTVPSSSLGTQTYICNVNHKPSNTKVDKKV[human IgG1 Fc not given here]GSGGGSVTGYRLFEEIL light: DLVMTQSPSSLSASVGDRVTITCKSSQSLFESSTRKNYLAWYQQKPGKAPKLLIYWASTRESGVPARFSGSGSGTDFTLTISSLEPEDFAVYYCHQYYYQPYTFGQGTKVEIKRTVAAPSVFIFPPSDEQLKSGTASVVCLLNNFYPREAKVQWKVDNALQSGNSQESVTEQDSKDSTYSLSSTLTLSKADYEKHKVYACEVTHQGLSSPVTKSFNRGEC"
5.73,0.78,"hT4VL.FRv40508 (antibody, human IgG1, kappa) heavy: EVQLVESGGGLVQPGGSLRLSCAASGYTFTSYVMHWVRQAPGKGLEWVSAINPYNDGNYYADSVKGRFTISRDNSRKTLYLQMNSLRAEDTAVYYCARGAYKRGYAMDYWGQGTTVTVSSASTKGPSVFPLAPSSKSTSGGTAALGCLVKDYFPEPVTVSWNSGALTSGVHTFPAVLQSSGLYSLSSVVTVPSSSLGTQTYICNVNHKPSNTKVDKKV[human IgG1 Fc not given here]GSGGGSVTGYRLFEEIL light: DLVMTQSPSSLSASVGDRVTITCKSSQSLFESSTRKNYLAWYQQKPGKAPKLLIYWASTRESGVPARFSGSGSGTDFTLTISSLEPEDFAVYYCQQFYYEPYTFGQGTKVEIKRTVAAPSVFIFPPSDEQLKSGTASVVCLLNNFYPREAKVQWKVDNALQSGNSQESVTEQDSKDSTYSLSSTLTLSKADYEKHKVYACEVTHQGLSSPVTKSFNRGEC"

# More lines, now with the values behind:
Binder,ECM binding vs Control Ab (pH 5.8) (fold vs Control Ab),ECM binding vs Control Ab (pH 7.4) (fold vs Control Ab)
"hT4VL.FRv40501 (antibody, human IgG1, kappa) heavy: EVQLVESGGGLVQPGGSLRLSCAASGYTFTSYVMHWVRQAPGKGLEWVSAINPYNDGNYYADSVKGRFTISRDNSRKTLYLQMNSLRAEDTAVYYCARGAYKRGYAMDYWGQGTTVTVSSASTKGPSVFPLAPSSKSTSGGTAALGCLVKDYFPEPVTVSWNSGALTSGVHTFPAVLQSSGLYSLSSVVTVPSSSLGTQTYICNVNHKPSNTKVDKKV[human IgG1 Fc not given here]GSGGGSVTGYRLFEEIL light: DLVMTQSPSSLSASVGDRVTITCKSSQSLFESKTRKNYLAWYQQKPGKAPKLLIYWASTRESGVPARFSGSGSGTDFTLTISSLEPEDFAVYYCHQYYYEPYTFGQGTKVEIKRTVAAPSVFIFPPSDEQLKSGTASVVCLLNNFYPREAKVQWKVDNALQSGNSQESVTEQDSKDSTYSLSSTLTLSKADYEKHKVYACEVTHQGLSSPVTKSFNRGEC",7.52,1.04
"hT4VL.FRv40511 (antibody, human IgG1, kappa) heavy: EVQLVESGGGLVQPGGSLRLSCAASGYTFTSYVMHWVRQAPGKGLEWVSAINPYNDGNYYADSVKGRFTISRDNSRKTLYLQMNSLRAEDTAVYYCARGAYKRGYAMDYWGQGTTVTVSSASTKGPSVFPLAPSSKSTSGGTAALGCLVKDYFPEPVTVSWNSGALTSGVHTFPAVLQSSGLYSLSSVVTVPSSSLGTQTYICNVNHKPSNTKVDKKV[human IgG1 Fc not given here]GSGGGSVTGYRLFEEIL light: DLVMTQSPSSLSASVGDRVTITCKSSQSLFESSTRKNYLAWYQQKPGKAPKLLIYWASTRESGVPARFSGSGSGTDFTLTISSLEPEDFAVYYCQQEYYQPYTFGQGTKVEIKRTVAAPSVFIFPPSDEQLKSGTASVVCLLNNFYPREAKVQWKVDNALQSGNSQESVTEQDSKDSTYSLSSTLTLSKADYEKHKVYACEVTHQGLSSPVTKSFNRGEC",13.1,1.14
"hT4VL.FRv40506 (antibody, human IgG1, kappa) heavy: EVQLVESGGGLVQPGGSLRLSCAASGYTFTSYVMHWVRQAPGKGLEWVSAINPYNDGNYYADSVKGRFTISRDNSRKTLYLQMNSLRAEDTAVYYCARGAYKRGYAMDYWGQGTTVTVSSASTKGPSVFPLAPSSKSTSGGTAALGCLVKDYFPEPVTVSWNSGALTSGVHTFPAVLQSSGLYSLSSVVTVPSSSLGTQTYICNVNHKPSNTKVDKKV[human IgG1 Fc not given here]GSGGGSVTGYRLFEEIL light: DLVMTQSPSSLSASVGDRVTITCKSSQSLFESSTRKNYLAWYQQKPGKAPKLLIYWASTRESGVPARFSGSGSGTDFTLTISSLEPEDFAVYYCYQYYYEPYTFGQGTKVEIKRTVAAPSVFIFPPSDEQLKSGTASVVCLLNNFYPREAKVQWKVDNALQSGNSQESVTEQDSKDSTYSLSSTLTLSKADYEKHKVYACEVTHQGLSSPVTKSFNRGEC",11.6,1.04
"hT4VL.FRv40504 (antibody, human IgG1, kappa) heavy: EVQLVESGGGLVQPGGSLRLSCAASGYTFTSYVMHWVRQAPGKGLEWVSAINPYNDGNYYADSVKGRFTISRDNSRKTLYLQMNSLRAEDTAVYYCARGAYKRGYAMDYWGQGTTVTVSSASTKGPSVFPLAPSSKSTSGGTAALGCLVKDYFPEPVTVSWNSGALTSGVHTFPAVLQSSGLYSLSSVVTVPSSSLGTQTYICNVNHKPSNTKVDKKV[human IgG1 Fc not given here]GSGGGSVTGYRLFEEIL light: DLVMTQSPSSLSASVGDRVTITCKSSQSLFESKTRKNYLAWYQQKPGKAPKLLIYWASTRESGVPARFSGSGSGTDFTLTISSLEPEDFAVYYCQQFYYEPYTFGQGTKVEIKRTVAAPSVFIFPPSDEQLKSGTASVVCLLNNFYPREAKVQWKVDNALQSGNSQESVTEQDSKDSTYSLSSTLTLSKADYEKHKVYACEVTHQGLSSPVTKSFNRGEC",12.9,1.57
"hT4VL.FRv40507 (antibody, human IgG1, kappa) heavy: EVQLVESGGGLVQPGGSLRLSCAASGYTFTSYVMHWVRQAPGKGLEWVSAINPYNDGNYYADSVKGRFTISRDNSRKTLYLQMNSLRAEDTAVYYCARGAYKRGYAMDYWGQGTTVTVSSASTKGPSVFPLAPSSKSTSGGTAALGCLVKDYFPEPVTVSWNSGALTSGVHTFPAVLQSSGLYSLSSVVTVPSSSLGTQTYICNVNHKPSNTKVDKKV[human IgG1 Fc not given here]GSGGGSVTGYRLFEEIL light: DLVMTQSPSSLSASVGDRVTITCKSSQSLFESSTRKNYLAWYQQKPGKAPKLLIYWASTRESGVPARFSGSGSGTDFTLTISSLEPEDFAVYYCQQEYYEPYTFGQGTKVEIKRTVAAPSVFIFPPSDEQLKSGTASVVCLLNNFYPREAKVQWKVDNALQSGNSQESVTEQDSKDSTYSLSSTLTLSKADYEKHKVYACEVTHQGLSSPVTKSFNRGEC",8.26,0.77
"hT4VL.FRv40510 (antibody, human IgG1, kappa) heavy: EVQLVESGGGLVQPGGSLRLSCAASGYTFTSYVMHWVRQAPGKGLEWVSAINPYNDGNYYADSVKGRFTISRDNSRKTLYLQMNSLRAEDTAVYYCARGAYKRGYAMDYWGQGTTVTVSSASTKGPSVFPLAPSSKSTSGGTAALGCLVKDYFPEPVTVSWNSGALTSGVHTFPAVLQSSGLYSLSSVVTVPSSSLGTQTYICNVNHKPSNTKVDKKV[human IgG1 Fc not given here]GSGGGSVTGYRLFEEIL light: DLVMTQSPSSLSASVGDRVTITCKSSQSLFESSTRKNYLAWYQQKPGKAPKLLIYWASTRESGVPARFSGSGSGTDFTLTISSLEPEDFAVYYCYQYYYQPYTFGQGTKVEIKRTVAAPSVFIFPPSDEQLKSGTASVVCLLNNFYPREAKVQWKVDNALQSGNSQESVTEQDSKDSTYSLSSTLTLSKADYEKHKVYACEVTHQGLSSPVTKSFNRGEC",17.7,1.7
"hT4VL.FRv40505 (antibody, human IgG1, kappa) heavy: EVQLVESGGGLVQPGGSLRLSCAASGYTFTSYVMHWVRQAPGKGLEWVSAINPYNDGNYYADSVKGRFTISRDNSRKTLYLQMNSLRAEDTAVYYCARGAYKRGYAMDYWGQGTTVTVSSASTKGPSVFPLAPSSKSTSGGTAALGCLVKDYFPEPVTVSWNSGALTSGVHTFPAVLQSSGLYSLSSVVTVPSSSLGTQTYICNVNHKPSNTKVDKKV[human IgG1 Fc not given here]GSGGGSVTGYRLFEEIL light: DLVMTQSPSSLSASVGDRVTITCKSSQSLFESSTRKNYLAWYQQKPGKAPKLLIYWASTRESGVPARFSGSGSGTDFTLTISSLEPEDFAVYYCHQYYYEPYTFGQGTKVEIKRTVAAPSVFIFPPSDEQLKSGTASVVCLLNNFYPREAKVQWKVDNALQSGNSQESVTEQDSKDSTYSLSSTLTLSKADYEKHKVYACEVTHQGLSSPVTKSFNRGEC",4.21,0.66
